# Results published in PubChem BioAssay AID504467 (National Center for Advancing Translational Sciences (NCATS), 2011).
# Hit rate of the full screen: of about 330,000 compounds, about 7,700 (2.3%) were called active. Another 26% or so got no clear call; they are omitted. Calls follow the shape of the dose curve; as a rule, active = well fitted inhibition curve with a large enough effect; inconclusive = small, poorly fitted or top-dose-only effect, or effect the other way; inactive = flat fitted curve, though single readings scatter. This is a selection; strong and weak results do not stand in their true shares.
# Assay: qHTS screen for small molecules that inhibit ELG1-dependent DNA repair in human embryonic kidney (HEK293T) cells expressing luciferase-tagged ELG1; also: nearly all actives have a fitted effect of over 55% in size
# Details: HEK293T ELG1-luciferase reporter, luminescence, 16 h, DNA damage induced by 5-fluorouridine; series mostly up to 46.1 µM; activity change, negative = inhibition: at the top concentration
# Text: NIH Molecular Libraries Probe Production Network [MLPCN] NIH Chemical Genomics Center [NCGC] MLPCN Grant: 1 R03 MH092164-01 Assay Provider: Kyungjae Myung, NHGRI, NIH Keywords: MLPCN, qHTS, NCGC, genotoxicity, cancer Assay Overview: Cancer cells divide rapidly compared to normal cells in the body. During cell division, cancer cells need to duplicate their genome by DNA replication. The failure of genome duplication leads to cancer cells' death. Therefore, inhibitors of DNA replication could specifically kill cancer cells. Based on this concept, many chemotherapeutic agents were developed and have been used to treat cancer patients. However, there are a limited number of agents available in the clinical setting, and some of those that do exist have low efficacy and severe side effects. Therefore, if we can find the compounds that effectively block DNA replication either by directly damaging DNA or by inhibiting other cellular mechanisms, the options for cancer treatment will be broadened. With this in mind, we developed a quantitative high-throughput ELG1-luciferase reporter gene assay. Small molecules that specifically block ELG1 function in response to DNA damage can be identified by monitoring the suppression of luciferase activity. Since ELG1 defines a pathway for repairing DNA damage, agents blocking ELG1 function can be used to sensitize cancer cells to chemotherapeutic agents whose mechanism of action involves the induction of DNA damage.
# Assay Protocol Summary: For genotoxicity screening, 2,000 cells in 4 uL/well were dispensed into white, solid-bottom 1536-well plates using a solenoid-based dispenser. Following transfer of 1 uL 5-Fluorouridine and 23 nL compound or DMSO vehicle by a pin tool, the plates were incubated 16 hr at 37 °C and 5% CO2. 5 ul ONE-Glo (Promega) was then added to each plate and following a 30 min incubation at room temperature, luciferase activity was quantified on a ViewLux CCD-based plate reader.
# % is scaled to controls: 0 for no effect and ±100 for the full control effect; potency is read from the fitted curve at half-maximal effect.
SMILES,Potency,"activity change, negative = inhibition"
CN(C(=O)c1cccs1)c1ccc(OCC(=O)N2CCC(C(N)=O)CC2)cc1,active: 14.6 µM,–
CC1(C)O[C@@H]2C[C@H]3[C@@H]4C[C@H](F)C5=CC(=O)C=C[C@]5(C)[C@H]4[C@@H](O)C[C@]3(C)[C@]2(C(=O)CO)O1,–,inactive: 10.8%
C=CC[C@@H](CC(=O)N[C@H](CO)Cc1ccccc1)C(=O)N[C@@H](COC(=O)[C@@H](CC=C)Cc1ccc(F)cc1)Cc1c[nH]c2ccccc12,–,inactive: -11.3%
COC(=O)[C@@H]1C[C@@]2(O)[C@@H](O)[C@@H](O)[C@@H](O)C[C@H]2N1Cc1ccc(C(F)(F)F)cc1,–,inactive: 20.6%
CC(C)(C)OC(=O)C[C@@H]1C/C=C\C[C@H](CC(=O)N[C@H](CO)Cc2ccccc2)C(=O)N2CCC[C@H]2COC1=O,–,inactive: 4.57%
O=C(C1=C[C@@H](C2CC2)C[C@@H](OCCCCO)O1)N1CCN(Cc2ccccc2)CC1,–,inactive: -9.4%
Cc1cccc(NC(=O)c2cc(-c3ccc(C)s3)nc3ccccc23)n1,active: 6.51 µM,–
CC(C)(C)OC(=O)C[C@H]1C/C=C\C[C@@H](CC(=O)N(CCO)Cc2ccccc2)C(=O)N[C@H](C(C)(C)C)COC1=O,–,inactive: 5.38%
C[C@H]1COC(=O)[C@@H](Cc2ccc(F)cc2)C/C=C\C[C@H](CC(=O)NCCO)C(=O)N1,–,inactive: 8.25%
CCO[C@@H]1OC(C(=O)N2CCCCCCC2)=C[C@H](c2ccc(C(F)(F)F)cc2)[C@H]1CCCO,–,inactive: 1.76%
CCOC(=O)c1nnn(-c2nc(OC)nc(N3CCCCC3)n2)c1-c1ccccc1,active: 18.4 µM,–
OCC[C@H]1C[C@@H](O)[C@H](O)[C@]2(CCc3ccccc3O2)O1,–,inactive: 2.76%
CC(=O)C[C@@H](O)CC(=O)[C@H]1OC(=O)[C@@H](C)C/C=C\Cc2ccccc21,–,inactive: 2.64%
CC(=O)n1cc([C@H]2C=C(C(=O)N3CCOCC3)O[C@@H](OCc3ccc(CO)cc3)C2)c2ccccc21,–,inactive: 0%
OCC[C@@H]1C[C@H](O)[C@@H](O)[C@]2(Cc3ccccc3CO2)O1,–,inactive: -14.4%
COc1cc(-c2nnc(CSc3nc4ccccc4s3)o2)cc(OC)c1OC,active: 11.6 µM,–
CCOC(=O)[C@@H]1[C@H]2COc3cc(OC)ccc3[C@H]2N2C(=O)N(c3ccc(C(F)(F)F)cc3)C(=O)[C@@]12C,–,inactive: 12.5%
CCO[C@@H]1OC(C(=O)N2CCOCC2)=C[C@H](c2ccccc2)[C@H]1CCCO,–,inactive: 33.6%
COc1ccccc1NC(=O)N1CCc2[nH]c3ccc(Cl)cc3c2C1,active: 16.4 µM,–
O=C(CNC(=O)/C(=C\c1ccccc1)NC(=O)c1ccc(Br)cc1)OCc1ccccc1,–,inactive: 4.11%
O=C(C[C@H]1C/C=C\C[C@H](Cc2ccc(F)cc2)C(=O)OC[C@@H]2CCCN2C1=O)N[C@H](CO)Cc1ccccc1,–,inactive: 7.24%
C[C@H](CCC(=O)NCC(=O)O)[C@H]1CC[C@H]2[C@@H]3[C@H](O)C[C@@H]4C[C@H](O)CC[C@]4(C)[C@H]3C[C@H](O)[C@]12C,inactive,–

SMILES,Potency,"activity change, negative = inhibition"
COc1cccc(C2c3[nH]c4ccccc4c3C[C@H]3C(=O)N(c4ccccc4C(=O)N4CCCC4C(=O)O)C(=O)N23)c1 (some centres undefined),–,inactive: -4.21%
COc1ccc(OCCNC(=O)c2ccccc2OCC(=O)Nc2ccc(NC(C)=O)cc2)cc1,active: 16.4 µM,–
COc1ccc(CC(=O)N[C@@H]2c3ccccc3CC[C@@H]2OCc2ccccc2)cc1,–,inactive: 23.5%
C[C@H]1CN([C@@H](C)CO)C(=O)c2cccc(NS(=O)(=O)c3ccc(F)cc3)c2O[C@H]1CN(C)S(=O)(=O)c1cn(C)cn1,–,inactive: 24.1%
CCOC(=O)[C@@H]1[C@H]2COc3ccccc3[C@H]2N2C(=O)N(c3ccc(C)cc3)C(=O)[C@]12C,–,inactive: -1.54%
CCOC(=O)[C@@H]1[C@H]2COc3ccccc3[C@H]2N2C(=O)N(c3cccc(F)c3)C(=O)[C@]12C,–,inactive: 6.15%
O=C(Nc1ccc(Cl)cc1)N1CCN(c2ccc3nnc(-c4ccc(F)cc4)n3n2)CC1,active: 4.61 µM,–
COc1ccc(C2Nc3ccccc3C(=O)N2Cc2ccco2)cc1CN1C(=O)c2ccccc2C1=O (centres undefined),–,inactive: -17.5%
Cc1cc(C(=O)N[C@@H](c2ccccc2)[C@]2(C)C[C@H]2[C@@H](C)C(=O)Nc2ccc3ccccc3c2)no1,–,inactive: 8.75%
COC(=O)c1ccc(CN2[C@H](C(=O)OC)C[C@@]3(O)[C@@H](O)[C@@H](O)[C@@H](O)C[C@@H]23)cc1,–,inactive: 12.9%
O[C@@H](c1cc(C(F)(F)F)nc2c(C(F)(F)F)cccc12)[C@H]1CCCCN1,–,inactive: 15.1%
CC(C)(C)OC(=O)C[C@@H]1C/C=C\C[C@H](CC(=O)N(CCO)Cc2ccccc2)C(=O)N2CCC[C@@H]2COC1=O,–,inactive: -7.28%
C[C@@H](NC(=O)[C@@H]1Cc2ccccc2CN1C(=O)OC(C)(C)C)C(=O)NCc1ccco1,–,inactive: 18.1%
NC(=O)c1ccsc1NC(=O)c1nc(-c2ccccc2)n(-c2ccccc2)n1,active: 18.4 µM,–
CCc1nnc(NS(=O)(=O)c2ccc(N/C=C/C(=O)c3ccc(C)cc3)cc2)s1,–,inactive: 25%
N=C1/C(=C/c2cccn2CCOc2ccccc2)C(=O)N=C2SC=C(c3ccccc3)N12,active: 18.4 µM,–
CCCC1CCC(C(=O)n2nc(N)c3cc4ccc(OC)cc4nc32)CC1 (centres undefined),active: 5.8 µM,–
O=C(NCc1ccccc1)C1=C[C@@H](c2csc3ccccc23)C[C@@H](OCCCCO)O1,–,inactive: -21.6%
O=C(C[C@H]1C/C=C\C[C@@H](NC(=O)OCC2c3ccccc3-c3ccccc32)C(=O)O[C@@H](c2ccccc2)CNC1=O)N[C@H](CO)Cc1ccccc1,–,inactive: -5.25%
OCC[C@H]1C[C@@H](O)[C@H](O)[C@]2(CCc3ccccc3CO2)O1,–,inactive: 7.93%
COC(=O)[C@@H]1C[C@@]2(O)[C@@H](O)[C@@H](O)[C@@H](O)C[C@H]2N1CC(c1ccccc1)c1ccccc1,–,inactive: 5.26%
CC1CN(c2nc3ccccc3nc2SCC(=O)Nc2ccc(F)cc2)CC(C)O1 (centres undefined),active: 16.4 µM,–
